The full ranking holds about 33,000 sequences; the median of “E-score (-0.5 to 0.5)” is about -0.016, and the highest 2% start at about 0.32. The list shows a part of the results.
Biological target: T1, Stp1 (UniProt B3LFK1)
T1 sequence: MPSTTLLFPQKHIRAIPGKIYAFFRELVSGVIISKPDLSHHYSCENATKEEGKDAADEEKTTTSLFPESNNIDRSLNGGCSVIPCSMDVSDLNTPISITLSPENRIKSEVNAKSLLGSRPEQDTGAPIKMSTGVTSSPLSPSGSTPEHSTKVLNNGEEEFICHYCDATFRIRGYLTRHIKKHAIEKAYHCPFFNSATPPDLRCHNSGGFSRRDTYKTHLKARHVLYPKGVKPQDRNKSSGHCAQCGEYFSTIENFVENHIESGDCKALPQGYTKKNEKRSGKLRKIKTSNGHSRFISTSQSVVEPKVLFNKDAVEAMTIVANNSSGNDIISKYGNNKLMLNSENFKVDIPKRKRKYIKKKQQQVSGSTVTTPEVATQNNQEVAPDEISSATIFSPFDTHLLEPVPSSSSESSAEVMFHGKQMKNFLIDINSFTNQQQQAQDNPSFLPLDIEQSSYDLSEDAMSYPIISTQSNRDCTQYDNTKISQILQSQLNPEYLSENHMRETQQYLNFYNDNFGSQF
Assay: PBM E-score (8-mer binding enrichment) (E-score (-0.5 to 0.5)); higher = stronger / more preferred TF binding; most listed sequences are background and not binding sites
Conditions: protein concentration: 200 nM; construct: GST-full length
Outline: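 Bound GST-tagged yeast transcription factors, applied at about 100-200 nM to double-stranded universal all-10-mer Agilent arrays, were detected with fluorescent anti-GST. Scans were normalised with masliner. A modified Wilcoxon-Mann-Whitney statistic, the E-score, was assigned to each ungapped eight-base word pooled with its reverse complement by the Universal PBM Analysis Suite.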

Sequence	PBM E-score
CGCTAGCG	-0.402
AACCTTGT	-0.147
CAAGCACG	0.0616
AACCCCAT	-0.153
AACCCCAC	-0.308
GCGGCGTA	0.433
GACTCCCC	-0.267
AGAGGGGG	-0.395
ACGCGAAG	-0.0258
AAACACGG	0.172
ACATTGTG	-0.0781
ACATGGCA	0.239
CAACCCGA	-0.142
ACGTGGCC	-0.108
CGTTTCGA	0.172
AAACTACC	-0.0531
AGGAGTGA	-0.177
ATTAATTA	0.103
AATACTGC	-0.0476
CAGCCGGA	0.0489
AGCTCGAA	-0.0387
CAATGGCG	0.0793
TCGAGGCA	0.195
GTGCCGCA	0.483
TCATTCCA	-0.166

Sequence	PBM E-score
AAGTATAA	0.0611
TCGAATCA	0.0606
ACTCCTTA	-0.164
CATTCCTA	-0.0291
GCCCACAA	-0.124
ACGGCACC	0.484
GATAAATC	0.13
ACGGGACT	0.0158
CAGTTACC	-0.156
CGAGAGCC	-0.195
ACCTAAGT	-0.0108
AACTAACC	0.117
ATTGTCAA	0.0982
GAAATGGC	0.104
AAAAGCGC	0.056
CGTAGGGC	0.151
AATTGACA	0.0766
AGCCTAGA	0.00734
CATAGAAG	0.074
CAGCGGTA	0.113
ACGCCGCA	0.476
TCCCTCCA	-0.262
AATTCCTG	-0.0858
ATGTATTG	0.126
ACAAGAGC	0.0548

Sequence	PBM E-score
GTGCGTAA	0.127
CAGACAGC	-0.0487
GTCTCATA	-0.085
AATGCGCA	-0.0477
AGTTACGG	0.0219
CTTCGCAC	0.168
TGGAACAA	0.0888
CATTTTTC	0.0822
CAGGTATC	-0.133
TCACCACA	0.0532
ATTACAAA	0.161
AACAATAC	0.137
CCGCCCGA	-0.123
ATACGAAA	0.139
AAATCCGC	0.0925
CGGCACAA	0.405
ACAATTCG	0.159
AGATGTTC	-0.0605
GACCCACA	0.0159
ATTCAGCG	-0.0619
AAGTCTTC	-0.0955
AAATACGC	0.247
AGACCCTA	-0.211
CAAGCCAC	-0.206
CTGTTAAA	0.0983

Sequence	PBM E-score
GCCGTAAC	0.33
CGCTGCAC	0.0717
CGGCCTTC	0.322
CCATGTAC	-0.11
ACTAATAC	0.128
GGTTTGTA	-0.177
ACCAGGGG	-0.142
AAATCGAG	0.00156
CGGTACGC	0.148
GGGCAGTA	-0.096
GGGTCACA	-0.191
CCTGTTCC	-0.121
ACGGGATG	-0.155
CGTCGCAC	0.128
TATTAAGA	0.0417
ATCTATTC	-0.00557
GTATTTGA	-0.0358
AGATTTCA	0.0885
ATGGCATC	0.186
GGAGCGAA	-0.0799
GACGTGAC	-0.126
CGGACGTC	-0.00174
ACCCAGAT	-0.268
ATAAGTCC	-0.141
TCGAAGCA	-0.0978

Sequence	PBM E-score
GAACCACA	0.0537
CGCCATAA	0.0594
GAGAACAC	-0.00017
GACAGTGA	-0.169
TACACGCA	-0.204
TAAGCCAA	-0.0218
ACACAATA	0.0747
ATCTTGTA	-0.0656
AGAATGTC	0.0594
TACGGACA	0.114
CAGGTGTC	-0.163
CCCAAAGA	-0.0587
AGCCTCTG	-0.23
AACTAAGA	0.0919
GATCTAGA	0.0387
ACATCCAT	0.0466
GAAAGCGA	0.0409
AACTGCTA	-0.106
TAGTATGA	0.107
CGAAAGAG	-0.0479
GCAAATGA	-0.116
AATTTGCT	0.14
CAAATGCA	-0.06
AATTTAAT	0.245
GCGAGAGC	0.00497

Sequence	PBM E-score
ACCGCTAA	0.0619
CATTATCA	0.0245
AGACAATA	0.28
AGCGAAAG	-0.138
ACCCGGGG	-0.224
TAGTGGGA	-0.21
GATTACGC	0.159
TCAGGAAA	0.032
ATATTGGA	-0.185
AAGTGATC	-0.0807
CTCGGTCA	-0.148
CCGAGCCA	-0.0385
ATCACGCC	0.0859
ACACACCA	0.0172
GTAGACGA	-0.0245
CCTACGCC	-0.0289
AGAGCGAG	-0.102
GAAAGTAC	0.0754
ACACTTGA	-0.0766
CCACATAC	0.094
AGAGCCCC	-0.12
GACGATAC	0.116
TCATAGAA	0.143
ATAGAAGA	-0.0683
GACCAACA	0.172

Sequence	PBM E-score
GCATCATA	0.157
ACATAGGT	0.00268
ACGATCGA	0.0709
AGTGCAGC	0.0827
ATCACGGC	0.351
CGCTTTTA	0.0826
GTTCCTGA	-0.215
AGTGACGC	-0.093
AATATGAT	0.171
GGACGGGA	-0.21
GAGTAAGA	0.0899
GCTTAACC	-0.197
AACCACTA	-0.103
GTGCCGGA	0.175
CCGTCTCG	0.197
CTAGAGGC	-0.0523
TGCAGGCA	-0.105
TACAGTGA	-0.0112
AGCAAGGC	0.29
CCAATCGC	0.164
ACCCTTGG	-0.28
TCCAGCCA	-0.159
ACAAGTCA	-0.012
AAATGCAT	0.0267
ATGACAGG	-0.132

Sequence	PBM E-score
AGATGCTA	-0.0596
ACACGTGG	0.108
CTGTCGGA	-0.144
GGCATAAC	0.134
AACATGGG	0.042
CACGATTC	0.101
AACAAGGC	0.184
CGAAACAC	0.0638
GACTTCCC	-0.338
CAGGCCTC	-0.356
GCTCGACA	-0.0566
ACCTGGAG	0.132
TACTGCAA	-0.146
CGCATAAC	0.00835
ATTACGTC	-0.0416
TATTCCGA	0.052
AACTTGCT	-0.106
GGCGATCA	0.145
CCTATACC	-0.275
AGATTGGA	-0.117
CAGACAGG	0.149
GGAGGGAA	-0.282
GAACCTAA	-0.0159
CGCCAAAC	-0.0861
CCGATATC	-0.0369

Sequence	PBM E-score
AAGGGCTG	-0.246
ACGCGGTG	0.0603
AATACAAA	0.116
GAAGATGC	-0.168
CTCGATGA	-0.0419
GGTACAAA	0.00814
TATCACCA	0.0166
AGCCAGCT	-0.121
AACACCTC	-0.324
CGCATCGA	0.0903
CCATAGCG	0.0647
ATTGTCCG	0.0154
AATTGCCA	-0.00723
AGCCTTCA	0.108
CTAGTGAC	-0.104
TGCAGCCA	0.0197
AATCACTA	0.0134
ATTGGGGA	-0.193
CATGAGCC	0.0875
CGCAGTAG	-0.127
AATGCCGT	0.485
AGGACGAA	0.123
CTCGCCCA	0.00487
TAAAGCAA	0.145
CATTGCAA	-0.00308

Sequence	PBM E-score
ACTTTTAC	0.226
CAGCCTGA	-0.0377
CCCATAAA	0.017
ATGCAAAC	-0.0781
ATTGACGA	0.126
GTCAGAGA	-0.0963
TTATGGAA	0.0641
TACGCTGA	0.182
ATCCAATC	0.045
GAGTCCCC	-0.385
ACTTAGAA	0.0195
AGCACGGC	0.451
ACAGGAGT	-0.0537
AATCTTAA	-0.0736
CGGCGAAA	0.354
CGGGCTGA	-0.142
AGACTTAA	-0.12
AATGGTGA	-0.00504
GCCATAGA	0.132
AGAAATAA	0.0754
ACATGCAT	-0.0665
CCCACCGG	-0.169
GTGGATGA	-0.104
GTGGGCTA	-0.161
CATGTCTA	-0.0239

Sequence	PBM E-score
AGAAGTCG	-0.0878
AAACAATG	-0.0267
AATAAATG	0.219
CGCCTGTA	-0.0697
ATCCGGAG	-0.0578
AAGTATCT	-0.0631
GCGCAGAA	0.216
GATGCTTA	-0.0459
AGTCAACC	-0.218
GGCATTAA	0.319
GGCTGCAC	0.0244
AAACCTTG	-0.177
TCCATCAA	0.0673
GGAGGTGA	-0.0209
ACTGGTCC	-0.321
CGTAGGAG	-0.127
CACGTCAG	-0.0897
ATAACTAA	0.123
ATGTTTAC	-0.00144
AGCCGGGC	-0.0588
GGGATATA	0.0195
GAACAGAC	-0.0627
GTTGGGAA	-0.0455
ACATTCGA	-0.0273
ATAATAAT	0.16

Sequence	PBM E-score
AGCAGGAT	-0.201
ACCCCCGC	-0.125
CGCTCAAC	-0.0888
AGCCCCGA	-0.315
TAGGCCAA	-0.086
ATCATAAG	0.0136
GAGCAGGC	-0.0781
GGTATAGA	-0.105
CACGCGCC	0.291
AAAGTATT	-0.0549
CGGTGTAA	-0.068
GTGGGTAA	-0.113
GACAGGCA	-0.0978
ACTGAAGT	-0.0141
ATTCGATC	0.0813
CTGGGCCA	-0.31
ATTATAAC	-0.0695
ACTTGTTA	0.106
ACCCGCAA	-0.214
CGAACCTA	-0.0355
CTCACGCA	0.172
CCTGGATC	-0.276
ATCTTCTC	-0.101
CTGCGCAG	-0.185
CCATGCCC	-0.0806

Sequence	PBM E-score
GAACAATA	0.184
CACAGCGG	0.0299
AATAGGGA	-0.271
GCTGGCAA	0.0771
ATTAGTGC	0.258
TCAGGCGA	-0.045
CAGCACAG	-0.00618
AGATCCGC	0.077
ATGCCAAC	0.134
CAACGATA	-0.0129
AAATCTAG	-0.00769
GCGACTGA	-0.227
GTGTTAGA	-0.0128
AGGAGTCG	-0.355
GTTCGGGA	-0.182
CCGAGAGG	-0.133
GAGCAAGA	0.0127
CAGCCTCG	-0.0153
GGTGTTTA	-0.0465
CCGTCGCG	0.189
AGGAAGAT	-0.0861
GAGAAGAC	-0.0278
AAATTTGT	0.0523
ATTCCGTG	0.127
ACTATCTA	0.0698

Sequence	PBM E-score
CAGAAGAG	-0.118
CGTACAAA	0.187
CACGCCAG	-0.0901
AGACTAAA	0.0832
CTTTACCA	-0.213
CCGTGCCG	0.47
ATCCGAGC	-0.18
CCACGAAG	-0.117
GTGAGATA	0.055
AGAATGTG	-0.127
CCTGCCCG	-0.0213
ATGGTACC	-0.108
GGAGAGAA	-0.0643
AAACAGGC	-0.0678
AAGAACAA	0.227
ACTGTCAT	-0.0811
AGATTTAC	0.0354
GAACCTGC	-0.18
AAGCCGTC	0.296
